The values that follow come from PubChem BioAssay AID1346428 (National Center for Advancing Translational Sciences (NCATS), 2018).

In all, about 48,000 compounds went through this assay and about 1,200 (2.5%) were called active. Not shown: some 2% with an inconclusive outcome.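 How the source made its calls: active means activation of at least 60% and not above a set upper limit (about 1 call in 100 departs from these limits); inconclusive means activation of 40% to 60%, or above that upper limit; inactive means activation under 40%.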 The list shows a part of the results.

In this assay the target is Probable G-protein coupled receptor 32 (Homo sapiens) (UniProt O75388). Put plainly: qHTS for Agonists of Human Resolvin D1 Receptor DRV1. Further: 0% is about no effect. As to conditions: CHO-K1 GPR32 beta-arrestin PathHunter luminescence, 90 min; at 76.9 µM; active compounds read high; zero percent set by DMSO-only wells. The method, boiled down: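 Agonism was scored by beta-Gal fragment complementation (chemiluminescent read, 1 h detection at ambient temperature) reporting beta-arrestin binding to GPR32 in engineered CHO-K1 cells. Compound treatment lasted 90 min at 37 C, normalized to a DMSO basal control.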
UniProt O75388, sequence (O75388 whole entry, looked up, the tested form may be a part): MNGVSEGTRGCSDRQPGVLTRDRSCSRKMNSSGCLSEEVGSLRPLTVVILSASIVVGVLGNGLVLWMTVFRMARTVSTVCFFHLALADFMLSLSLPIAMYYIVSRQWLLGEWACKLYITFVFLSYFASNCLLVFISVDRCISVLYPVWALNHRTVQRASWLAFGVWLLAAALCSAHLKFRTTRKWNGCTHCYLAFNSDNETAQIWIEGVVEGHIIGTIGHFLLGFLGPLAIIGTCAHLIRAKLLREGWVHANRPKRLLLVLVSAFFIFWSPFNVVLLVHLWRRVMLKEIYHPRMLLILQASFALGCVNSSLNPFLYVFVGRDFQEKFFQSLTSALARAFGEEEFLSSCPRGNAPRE
(qHTS replaces the single test concentration by a dilution series.)
Regarding `CC(C)c1ccc(C2=NC(c3ccncc3)=Nc3ccc(F)cc3N2)cc1`, the activation is inactive: 6.14%.

As to `O=C(Nc1nc2c(s1)CCCC2)c1ccccc1F`, the activation was inactive: -7.97%. The same measure for `Cc1ccc(NC(=O)c2ccc(N(Cc3ccccc3)S(C)(=O)=O)cc2)cc1`: inactive: -6.76%; for `COc1ccc(OC)c(CCNC(=O)c2nn(C)c3c2CSc2ccccc2-3)c1`: inactive: -17.7%. The same measure for `CNC(=O)c1ccc2nc(Cc3ccccc3)oc2c1`: inactive: 8.97%; for `CCOC(=O)c1c(S(=O)(=O)N2CCN(c3cccc(C(F)(F)F)c3)CC2)c(C)n(C)c1C`: inactive: 12.2%. The same measure for `CCCn1cc(S(=O)(=O)c2ccc(CC)cc2)c(=O)c2cc(F)c(N3CCN(C)CC3)cc21`: inactive: -0.365%; for `CCOc1ccc(Cn2c(CNS(=O)(=O)c3ccc(CC)cc3)nc3cccnc32)cc1`: inactive: -21.7%.

In the case of `CCOC(=O)N1CCC(NC(=O)c2ccc3c(c2)N(Cc2ccc(Cl)cc2)C(=O)c2ccccc2S3(=O)=O)CC1`, the activation was inactive: -12.5%.

As to `Cc1ccc(C(=O)c2oc3ccccc3c2NC(=O)C(C)Oc2ccccc2Cl)cc1` (stereo not given), the activation is inactive: -7.84%. The same measure for `CCC1CCc2c(sc(NC(=O)C3c4ccccc4Oc4ccccc43)c2C(=O)OC)C1` (stereo not given): inactive: 13.1%. The same measure for `CC(C)c1ccc2oc(-c3ccc(Cl)c(NC(=O)Cc4ccccc4)c3)nc2c1`: inactive: 1.75%; for `Cc1cc(Br)ccc1NC(=O)CCNS(=O)(=O)c1cccc2nonc12`: inactive: -4.21%; for `COc1ccc(NC(=O)c2c(NCc3cccs3)sc3c2CCCCC3)c(OC)c1`: inactive: 20.3%. The same measure for `O=C(Nc1ccc(Br)cc1F)c1cc2nc(-c3ccco3)cc(C(F)(F)Cl)n2n1`: inactive: -26.5%. Turning to `O=C(Cn1cc(SCc2ccccc2F)c2ccccc21)N1CCCC1`, the activation was inactive: -20.1%.

For `CCOc1ccc(OCC)c(Nc2nc3ccc(C(=O)c4ccccc4)cc3n3cnnc23)c1`, the activation was inactive: -13.1%.

For `O=S(=O)(c1ccc(OC(F)(F)F)cc1)N1CCC(c2nc3ccccc3s2)CC1`, the activation was inactive: 0.658%.

On to `CCCOc1ccc2nc(NC(=O)OC)[nH]c2c1`, for which the activation is inactive: 33.1%. In the case of `COc1ccc2c(c1)CC(C(=O)Nc1ccc(OC)cc1OC)CO2` (stereo not given), the activation was inactive: -18.5%.

Take `CCOC(=O)c1cccc(NC(=O)N2CCC(CN3CCc4ccccc4C3)CC2)c1`: the activation was inactive: -27.1%. The same measure for `FC(F)(F)c1cccc(N2CCN(Cc3nnc(-c4ccc5c(c4)OCO5)o3)CC2)c1`: inactive: -13.9%; for `O=C(Cc1ccc(F)cc1)NCc1nc2cccnc2n1Cc1ccc(F)cc1`: inactive: -14.8%. The same measure for `Cc1ccccc1C(=O)Nc1ccc2nc(Nc3cccc(C(F)(F)F)c3)cc(C)c2c1`: inactive: 25.1%; for `CCOc1ccc(S(=O)(=O)c2c[nH]c3ccccc3c2=O)cc1`: inactive: 2.43%; for `COc1ccc(CCNC(=O)C2CCN(c3ncnc4c3nc3n4CCCCC3)CC2)c(OC)c1`: inactive: 7.54%. The same measure for `CCOC(=O)c1cccc(NC(=O)N2CC(CC)Sc3ccccc32)c1` (stereo not given): inactive: -36.8%. For the molecule `COc1cccc(-c2nc(SCC(=O)NCC3CCCO3)c(-c3ccc(F)cc3)[nH]2)c1` (stereo not given), the activation was inactive: -19.3%. The same measure for `CC1CCCN(Cc2nc3c(c(=O)n(C)c(=O)n3C)n2Cc2ccc(Cl)cc2Cl)C1` (stereo not given): inactive: 11.7%; for `NS(=O)(=O)c1ccc(CCNC(=O)c2ccc3nc(Cc4ccccc4)oc3c2)cc1`: inactive: 37.8%; for `CC(C)(C)C1CCc2c(sc(NC(=O)CCC(=O)O)c2C(=O)Nc2ccccc2C(F)(F)F)C1` (stereo not given): inactive: 43.5%. The same measure for `CCCc1cc(=O)oc2cc(C)c3c(-c4cccc(OC)c4)coc3c12`: inactive: -5.32%. The same measure for `COC(=O)c1ccc2c(=O)n(CCCCCC(=O)N3CCN(c4cc(Cl)ccc4C)CC3)c(=O)[nH]c2c1`: inactive: 6.05%; for `CCc1ccc(NC(=O)Cn2ncc3c(C)n(Cc4cccc(Cl)c4)c(C)c3c2=O)cc1`: inactive: -0.0564%. As to `CN(C)CCNC(=O)CN1C(=O)CCn2nc(-c3cn(C)c4ccccc34)cc21`, the activation was inactive: -18%. In the case of `O=C(Nc1ccc(C(F)(F)F)cc1)C1CCCN(S(=O)(=O)c2cccc3cccnc23)C1` (stereo not given) it was inactive: 1.52%; in that of `CC(=O)Nc1ccc(S(=O)(=O)NCc2ccc(C(=O)NCc3ccc(Cl)cc3)cc2)cc1`, inactive: 16.6%.

Consider `COc1ccc(CCNC(=O)c2cnc3sc(N4CCC(C)CC4)nn3c2=O)cc1OC`, for which the activation is inactive: -0.0536%. In the case of `O=C(Nc1cccc(C(=O)N2CCN(c3ccccc3F)CC2)c1)c1nsc2ccccc12` it was inactive: -17.3%. In the case of `COc1ccccc1Nc1c2c(nc3ccc(NC(=O)c4cccc(OC)c4OC)cc13)CCCC2` it was inactive: -7.21%; in that of `COC(=O)c1cc2sccc2n1Cc1nc(-c2cccc(Br)c2)oc1C`, inactive: -7.91%; in that of `CCN(c1ccc(OC)cc1)S(=O)(=O)c1nnc(NC(=O)c2ccccc2C)s1`, inactive: -1.64%. As for `CCC1CCCCN1C(=O)CSc1n[nH]c(-c2ccccc2Cl)n1` (stereo not given), the activation was inactive: -82.3%. The same measure for `CCn1ccc2cc(S(=O)(=O)N3CCCN(C(=O)Nc4ccc(C)c(F)c4)CC3)ccc21`: inactive: 12.2%; for `COc1ccc(CNC(=O)C(C)N2Cc3ccccc3C2=O)cc1` (stereo not given): inactive: 4.65%. For `CC(C)CC(=O)NCC1(N(C)C)CCCCC1`, the activation was inactive: -2.97%.

As for `CCCc1ccc(OCC(=O)Nc2sc3c(c2C(=O)OC)CCCCC3)cc1`, the activation is inactive: -15%. Consider `CCCCOc1ccccc1C(=O)Nc1nonc1-c1ccccc1`, for which the activation was inactive: 6.07%. In the case of `Cc1cccc(N(C)c2nc3ccc(C)cc3n3cnnc23)c1` it was active: 66.1%. In the case of `Cc1ccc(CNC(=O)CCCN2C(=O)c3cccnc3Oc3ccc(Cl)cc32)cc1` it was inactive: -12.6%; in that of `Cc1nc(-c2ccccc2)sc1CCNC(=O)C(=O)Nc1ccc2c(c1)OCCO2`, inactive: 7.93%; in that of `Cc1cccc(NC(=O)C(Cc2ccccc2)n2cccc2)c1C` (stereo not given), inactive: -14.7%. In the case of `CCOc1ccc(NC(=O)c2cc3c(s2)-c2ccccc2OC3)cc1` it was inactive: 4.29%; in that of `O=C(Nc1nnc(S(=O)(=O)N2CCCCCC2)s1)c1ccccc1Cl`, inactive: 23.2%; in that of `COc1cc(OC)c(NC(=O)N2CCc3c(sc4c3CCCC4)C2c2ccccc2)cc1Cl` (stereo not given), inactive: 28.2%.
